According to ChEMBL document CHEMBL4888484, “Replenishing the malaria drug discovery pipeline: Screening and hit evaluation of the MMV Hit Generation Library 1 (HGL1) against asexual blood stage Plasmodium falciparum ,using a nano luciferase reporter read-out” (2022):
The whole screen tested about 150,000 compounds, of which about 540 (0.36%) showed an effect of 50% or more. The list shows a part of the results.

What follows are compounds tested on Plasmodium falciparum (assay: Primary screen in NF54 nanoGlo assay, in single point, at 2uM, 72h; a lower Z score goes with more inhibition). Details: timepoint 72 hour.
Type: functional, Erythrocyte

Question: With `Cc1n[nH]c(C(=O)N2CCC=C(F)C2)c1C` as the compound, how does the “% Inhibition” value read?
Answer: -6%

Question: And the Z score?
Answer: 0.59

Question: `COC(c1ccc(Cl)cc1)C(C)Nc1nccnc1C#N` (configuration not stated) was tested. Which “% Inhibition” value did it give?
Answer: -7%

Question: And the Z score?
Answer: 1.05

Question: For `CCCc1noc(CCC(=O)N2CCc3ccccc3C2)n1`, which “% Inhibition” value is on record?
Answer: 0%

Question: And the Z score?
Answer: 0

Question: What does the source list for `CCc1nsc(N2CC[C@H](c3ccccn3)C2)n1`?
Answer: % Inhibition: 3%; Z score: -0.31

Question: Which results are given for `COc1cc(F)c(C(=O)Nc2c(C)c(C3CC3)nn2-c2ccccc2)cc1OC`?
Answer: % Inhibition: 7%; Z score: -0.84

Question: What does the source list for `COC(=O)N1CCc2ccc(F)cc2[C@@H]1C(=O)N1CCN(S(=O)(=O)C2CC2)CC1`?
Answer: % Inhibition: -4%; Z score: 0.62

Question: Which results are given for `COc1ccc(C2=NN(C(=O)CN3CCCCC3C)C(c3ccccc3OC)C2)cc1` (configuration not stated)?
Answer: % Inhibition: -4%; Z score: 0.56

Question: For `Cc1nnsc1C(=O)N1CC[C@H](N2C(=O)COC2=O)C1`, which “% Inhibition” value is on record?
Answer: -2%

Question: What about the Z score of the same compound?
Answer: 0.34

Question: Which “% Inhibition” value does the source give for `CCc1nc(CN(C)Cc2nnc(C3CC3)n2C)no1` here?
Answer: -9%

Question: What about the Z score of the same compound?
Answer: 0.8

Question: `CC(C)(C)C(=O)NCCN1c2ccccc2N(C2CC2)S1(=O)=O` was tested. Which “% Inhibition” value did it give?
Answer: -19%

Question: What about the Z score of the same compound?
Answer: 3.62

Question: With `CN1CCCN(c2cnn(CCn3cnc4ccccc43)c(=O)c2)CC1` as the compound, how does the “% Inhibition” value read?
Answer: 10%

Question: And the Z score?
Answer: -1.22

Question: What does the source list for `O=C(NCCC1(O)CCCC1)c1cncs1`?
Answer: % Inhibition: -34%; Z score: 3

Question: `COc1ccc(C(CC(=O)O)NC(=O)C2C3CCCCC32)c(OC)c1` (configuration not stated) was tested. Which “% Inhibition” value did it give?
Answer: 12%

Question: And the Z score?
Answer: -1.41

Question: Which “% Inhibition” value does the source give for `C[C@H]1CC[C@@H](C(=O)Nc2ccccc2F)O1` here?
Answer: 1%

Question: What about the Z score of the same compound?
Answer: -0.1

Question: Which “% Inhibition” value does the source give for `N#CCN(C(=O)CCCOCCc1ccccc1)C1CC1` here?
Answer: 4%

Question: And the Z score?
Answer: -0.51

Question: `CC(C)CC(=O)N1CCc2ccc(OC(C)C(=O)Nc3cccc(Cl)c3)cc2C1c1ccccc1` (configuration not stated) was tested. Which “% Inhibition” value did it give?
Answer: -25%

Question: And the Z score?
Answer: 2.4

Question: Which “% Inhibition” value does the source give for `Cc1nc(CC(=O)NCCCn2nccc2C2CC2)c(C)s1` here?
Answer: -6%

Question: What about the Z score of the same compound?
Answer: 0.9

Question: How did the “% Inhibition” value turn out when `Cc1c(C(=O)NCCCn2ccnc2)cnn1C` was run?
Answer: -1%

Question: What about the Z score of the same compound?
Answer: 0.22

Question: `N#CCCN(Cc1ccccc1)C[C@H](O)c1cccs1` was tested. Which “% Inhibition” value did it give?
Answer: -5%

Question: And the Z score?
Answer: 0.7

Question: Which “% Inhibition” value does the source give for `C=C(C)CNC(=O)[C@H]1CCCN(C2CCN(C3Cc4ccccc4C3)CC2)C1` here?
Answer: 8%

Question: What about the Z score of the same compound?
Answer: -1.46

Question: What does the source list for `CCC[C@H](NC(=O)CNS(C)(=O)=O)c1nccn1C`?
Answer: % Inhibition: -8%; Z score: 1.16

Question: With `O=C1NCCCn2cc(S(=O)(=O)NCc3ccncc3)cc21` as the compound, how does the “% Inhibition” value read?
Answer: -11%

Question: And the Z score?
Answer: 1.24

Question: With `CCn1ccnc1CNc1ccc(OCC(F)(F)C(F)F)nc1` as the compound, how does the “% Inhibition” value read?
Answer: -12%

Question: And the Z score?
Answer: 1.53

Question: Which “% Inhibition” value does the source give for `CC/C=C(/CN1C[C@H](CO)[C@@H](CO)C1)c1ccccc1` here?
Answer: -10%

Question: And the Z score?
Answer: 1.52

Question: For `O=C(Cc1c(F)cccc1Cl)Nc1cnc(-c2ccc(F)cc2)nc1`, which “% Inhibition” value is on record?
Answer: -23%

Question: And the Z score?
Answer: 2.03

Question: How did the “% Inhibition” value turn out when `COc1ncccc1[C@H]1CCN(C(=O)c2sccc2CN(C)C)C1` was run?
Answer: -6%

Question: What about the Z score of the same compound?
Answer: 0.74

Question: For `c1cc(CNc2ccc3scnc3c2)ccn1`, which “% Inhibition” value is on record?
Answer: 3%

Question: And the Z score?
Answer: -0.38

Question: `O=C(Nc1ccccc1)c1cccc2c(=O)c3c([nH]c12)CCC3` was tested. Which “% Inhibition” value did it give?
Answer: -10%

Question: What about the Z score of the same compound?
Answer: 1.99

Question: With `Cc1ccccc1OCCn1cnc2cc3c(cc21)OCCO3` as the compound, how does the “% Inhibition” value read?
Answer: -5%

Question: And the Z score?
Answer: 0.54

Question: Which results are given for `CN(CCc1ccccn1)C(=O)[C@@]12CCCC[C@H]1N(C)C(=O)CC2`?
Answer: % Inhibition: -12%; Z score: 1.13

Question: Which results are given for `CC(C)NC(=O)NC(=O)CN(C)C1CCCCC1`?
Answer: % Inhibition: 2%; Z score: -0.26

Question: With `Cc1[nH]c2c(CN3CC(N4CCOCC4)C3)cccc2c1C` as the compound, how does the “% Inhibition” value read?
Answer: 7%

Question: What about the Z score of the same compound?
Answer: -0.82

Question: Which results are given for `O=C(Nc1ccccc1-c1ccccc1)c1cnc(OC2CCOCC2)c(Cl)c1`?
Answer: % Inhibition: 3%; Z score: -0.62

Question: How did the “% Inhibition” value turn out when `FC(F)(F)c1cnc(Cc2ccc(OCc3ccc(Cl)cc3)cc2)c(Cl)c1` was run?
Answer: -3%

Question: What about the Z score of the same compound?
Answer: 0.4

Question: What does the source list for `Cc1n[nH]c([C@@H]2CCN(C(=O)C3CCOCC3)CCN2CC2CCOCC2)n1`?
Answer: % Inhibition: -1%; Z score: 0.17

Question: For `O=C(Nc1ccc2c(c1)OCCO2)c1nn(-c2ccc(F)cc2)c2ccccc2c1=O`, which “% Inhibition” value is on record?
Answer: -14%

Question: And the Z score?
Answer: 1.74

Question: `CN(Cc1csc(-c2ccccc2)n1)Cc1nccn1C` was tested. Which “% Inhibition” value did it give?
Answer: -9%

Question: What about the Z score of the same compound?
Answer: 1.63

Question: With `COc1ccc(Nc2nnc(/C=C/c3ccccc3)c(=O)n2N)cc1` as the compound, how does the “% Inhibition” value read?
Answer: 43%

Question: What about the Z score of the same compound?
Answer: -5.59

Question: With `COc1ccccc1OCC(=O)N1CCC[C@H](Nc2cccc(F)c2)C1` as the compound, how does the “% Inhibition” value read?
Answer: -3%

Question: What about the Z score of the same compound?
Answer: 0.51

Question: For `Cc1ccc2ncc(CN3CCC(CC(=O)N4CCCC4)CC3)n2c1`, which “% Inhibition” value is on record?
Answer: -2%

Question: What about the Z score of the same compound?
Answer: 0.29

Question: `CCn1cnnc1C[C@H]1CCN(S(=O)(=O)c2ccccc2)C1` was tested. Which “% Inhibition” value did it give?
Answer: 6%

Question: What about the Z score of the same compound?
Answer: -1.02

Question: With `CC1=CCCC(C)C1CNCCc1c(C)noc1C` (configuration not stated) as the compound, how does the “% Inhibition” value read?
Answer: 4%

Question: What about the Z score of the same compound?
Answer: -0.39

Question: How did the “% Inhibition” value turn out when `O=C(Cc1noc2ccccc12)Nc1cc(N2CCCC2=O)ccc1Cl` was run?
Answer: -17%

Question: And the Z score?
Answer: 2.27

Question: `COc1ccc(C(=O)[C@@H]2[C@@H]3CCCN3[C@]3(C(=O)Nc4ccccc43)[C@@]23C(=O)Nc2ccccc23)cc1OC` was tested. Which “% Inhibition” value did it give?
Answer: -13%

Question: What about the Z score of the same compound?
Answer: 1.71

Question: How did the “% Inhibition” value turn out when `Cc1nn2c3ccccc3nc2n(Cc2ccccc2)c1=O` was run?
Answer: 8%

Question: What about the Z score of the same compound?
Answer: -1.16

Question: Which results are given for `CC(C)S(=O)(=O)NC(=O)CC1CC(C)(C)C1`?
Answer: % Inhibition: -1%; Z score: 0.09

Question: `CC(C)(C)C(=O)NCc1cncc(-c2cccs2)c1` was tested. Which “% Inhibition” value did it give?
Answer: 10%

Question: And the Z score?
Answer: -1.34

Question: `Cn1cc(N2CC(NC(=O)CC3CCCO3)CC2=O)cn1` (configuration not stated) was tested. Which “% Inhibition” value did it give?
Answer: -5%

Question: What about the Z score of the same compound?
Answer: 0.88

Question: `CC(C)n1c(=O)sc2cc(NS(=O)(=O)c3ccccc3Br)ccc21` was tested. Which “% Inhibition” value did it give?
Answer: 1%

Question: And the Z score?
Answer: -0.12

Question: `NC[C@H]1Cc2cccc(-c3ccc4[nH]ccc4c3)c2O1` was tested. Which “% Inhibition” value did it give?
Answer: 8%

Question: What about the Z score of the same compound?
Answer: -1.2

Question: For `CS(=O)(=O)c1ccc(-n2nc(C3CC3)nc2Cc2ccc3c(c2)OCO3)cc1`, which “% Inhibition” value is on record?
Answer: -15%

Question: And the Z score?
Answer: 1.56

Question: Which results are given for `CC(C)[C@H](NC(=O)c1ccco1)C(=O)NCc1ncccc1O`?
Answer: % Inhibition: -22%; Z score: 4.15

Question: For `Cc1cc(C(=O)NCc2cc3n(n2)CCNC3)cc2sc(N)nc12`, which “% Inhibition” value is on record?
Answer: 2%

Question: What about the Z score of the same compound?
Answer: -0.23

Question: Which “% Inhibition” value does the source give for `CC(=O)c1ccc(N2C(=O)[C@@H]3C(Cc4c[nH]c5ccccc45)NC4(C(=O)Nc5c4ccc(C)c5C)[C@@H]3C2=O)cc1` (some centres not stated) here?
Answer: 7%

Question: And the Z score?
Answer: -1.32

Question: With `Cc1ncsc1CNCc1cc(Br)cc2c1OCC2` as the compound, how does the “% Inhibition” value read?
Answer: -9%

Question: What about the Z score of the same compound?
Answer: 1.25

Question: `COc1ccccc1-c1c(C)nn2c(N3CCN(c4ccc(F)cc4)CC3)cc(C)nc12` was tested. Which “% Inhibition” value did it give?
Answer: -1%

Question: And the Z score?
Answer: 0.09
